Out of some 48,000 compounds screened, about 550 (1.1%) were called active. Inconclusive results (about 4%) are left out. No stated cut-off is given here; in the data, active means potency below about 15 µM; inconclusive means mostly about 16 µM to 33 µM; inactive means weaker than that. Some of the results follow. Some results are limits rather than exact numbers.

From PubChem BioAssay AID360 (National Center for Advancing Translational Sciences (NCATS), 2006) come the findings set out here.
Potency means the concentration at half of the fitted maximal effect.

Chain of UniProt P04062 (P04062 whole entry, looked up): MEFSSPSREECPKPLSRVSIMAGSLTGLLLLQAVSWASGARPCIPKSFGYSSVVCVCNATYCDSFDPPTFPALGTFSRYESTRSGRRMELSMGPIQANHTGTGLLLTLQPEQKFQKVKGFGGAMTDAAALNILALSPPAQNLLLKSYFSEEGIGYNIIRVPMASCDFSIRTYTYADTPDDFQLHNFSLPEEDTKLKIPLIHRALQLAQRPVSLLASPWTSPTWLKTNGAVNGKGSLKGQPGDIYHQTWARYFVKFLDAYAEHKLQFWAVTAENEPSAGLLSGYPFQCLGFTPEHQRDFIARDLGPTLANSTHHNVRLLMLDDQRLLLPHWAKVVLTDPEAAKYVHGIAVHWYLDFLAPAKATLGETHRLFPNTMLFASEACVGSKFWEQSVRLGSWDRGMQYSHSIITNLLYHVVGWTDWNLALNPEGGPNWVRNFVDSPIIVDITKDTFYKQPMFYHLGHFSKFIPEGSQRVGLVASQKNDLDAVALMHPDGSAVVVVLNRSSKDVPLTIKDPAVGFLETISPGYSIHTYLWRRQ

In this experiment the target is Lysosomal acid glucosylceramidase (Homo sapiens) (UniProt P04062). The experiment can be described thus: Glucocerebrosidase.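 Further: the screen sought inhibitors.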 The conditions noted are these: purified enzyme, resorufin glucoside fluorescence (screen aimed at inhibitors), 20 min. The gist of the method:
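Wild-type enzyme at 0.2 nM final in 50mM citric acid/KH2PO4, 10mM sodium taurocholate, 0.01% tween-20, pH 5.9, with resorufin beta-D-glucopyranoside at 30 uM final. Compounds titrated, 20 min at RT, red fluorescence read; AC50 from titration.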
As for `Cc1ccc(C(=O)NCC(=O)OCC(=O)c2c(N)n(C)c(=O)n(C)c2=O)s1`, the Potency is inactive: > 76.9 µM.
With `CCOC(=O)c1ccc(N2C(=O)CC(C(=O)OC)=C2C)cc1`, the Potency is inactive: > 76.9 µM.
Consider `O=S(=O)(c1cccc(S(=O)(=O)N2CCN(c3ncccn3)CC2)c1)N1CCOCC1`, for which the Potency is inactive: > 76.9 µM.
In the case of `CC(=O)Nc1ccc(S(=O)(=O)N2CCSC2c2ccccc2)cc1` (stereo not drawn), the Potency was inactive: > 76.9 µM.
The same measure for `CC(C)(C)OC(=O)N1CCN(c2ccc(NC(=O)Cn3nnc(-c4ccccc4)n3)cc2)CC1`: inactive: > 76.9 µM; for `Cc1ccc(S(=O)(=O)NC2=NCN(C3CCCCC3)CN2)cc1`: inactive: > 76.9 µM.
For the compound `Cc1ccc(NC(=O)CSc2nnc(-c3ccccc3Br)o2)cc1C`, the Potency is inactive: > 76.9 µM.
Regarding `O=C(CN1CCN(c2ccc(Cl)cc2)CC1)Nc1cccc(F)c1`, the Potency was inactive: > 76.9 µM.
On to `Cc1c(C(=O)NCc2ccccn2)sc2nc(-c3ccc(F)cc3)cn12`, for which the Potency is inactive: > 76.9 µM.
`O=S(=O)(N1CCOCC1)N1CCCN(S(=O)(=O)N2CCOCC2)CC1`: the Potency is inactive: > 76.9 µM.
Take `N#CC(C(=O)OCc1ccccc1)c1nc2ccccc2nc1N1CCOCC1` (stereo not drawn): the Potency is inactive: > 76.9 µM.
Regarding `CCOc1ccc(-n2c(=O)c3c(C)c(C)sc3n(CC(=O)NCc3ccco3)c2=O)cc1`, the Potency was inactive: > 76.9 µM.
As for `O=C(Nc1ccc2c(c1)OCO2)C1CC(c2c(F)cccc2Cl)=NO1` (stereo not drawn), the Potency was inactive: > 76.9 µM.
Take `CCCCNC(=O)c1ccc(CS(=O)(=O)c2cccc(C(F)(F)F)c2)o1`: the Potency was inactive: > 76.9 µM.
The same measure for `O=C(CN1CCCN(Cc2ccc(F)cc2Cl)C1=O)NCc1ccccc1`: inactive: > 76.9 µM; for `CCCOc1ccc(NC(=O)C2CC(=O)N(C(C)C)C2)cc1` (stereo not drawn): inactive: > 76.9 µM; for `C=CCC1c2cccc(C(=O)O)c2C(=O)N1c1cccc(C)c1` (stereo not drawn): inactive: > 76.9 µM.
Turning to `Cc1ccccc1Nc1nc(N)nc(CN2CCN(c3ccccn3)CC2)n1`, the Potency result is “inactive”.
In the case of `CCOC(=O)c1[nH]c(C)c(/C(O)=C2\C(=O)C(=O)N(CCCN(C)C)C2c2cccnc2)c1C` (stereo not drawn), the Potency is inactive: > 76.9 µM.
Under `O=C(c1ccco1)N1CCN(C(=O)C(Cc2ccccc2)NS(=O)(=O)c2cccs2)CC1` (stereo not drawn) stands inactive: > 76.9 µM; under `COc1ccc(NC(=O)CN2CCN(CC(=O)Nc3ccc(OC)c(OC)c3)CC2)cc1`, inactive: > 76.9 µM; under `CCOc1ccc(-c2nnn(CC(=O)Nc3cc(OC)ccc3OC)n2)cc1OCC`, inactive: > 76.9 µM.
For `CCOc1ccc(CCNC(=O)CN(C)S(=O)(=O)c2cccc3nsnc23)cc1OCC`, the Potency was inactive: > 76.9 µM.
For the compound `COc1ccc(NC(=O)c2ccc(COc3ccccc3Br)o2)cc1OC`, the Potency is inactive: > 76.9 µM.
For `CC(C)OC(=O)CSc1nnc(-c2cnccn2)n1Cc1ccco1`, the Potency was inactive: > 76.9 µM.
With `Cc1cc(NC(=O)CSc2ccc3nnc(-c4ccccc4)n3n2)no1`, the Potency is inactive: > 76.9 µM.
On to `c1ccc2[nH]c(CSc3nnc(-c4ccncc4)o3)nc2c1`, for which the Potency is inactive: > 76.9 µM.
For `CC(C)C(=O)Nc1ccc(N2CCN(C(=O)c3cccs3)CC2)cc1`, the Potency is inactive: > 76.9 µM.
As to `Cc1cc(C)n2nc(C(=O)Nc3ccccc3N3CCOCC3)nc2n1`, the Potency is inactive: > 76.9 µM.
Under `COc1ccc(CN2C(=O)CCC2(C)C(=O)NCc2cccnc2)c(OC)c1` (stereo not drawn) stands inactive: > 76.9 µM.
As for `COc1[nH]c(/N=C/c2ccccc2)c(C#N)c1C#N`, the Potency is inactive: > 76.9 µM.
The same measure for `O=C(c1ccccc1)C1C(=O)c2ccccc2C1=O`: inactive: > 76.9 µM; for `COc1ccc(-n2c(CNC(=O)c3ccc(S(=O)(=O)N4CCCC4)cc3)n[nH]c2=S)cc1`: inactive: > 76.9 µM; for `CCOC(=O)N1CCC(NCCNC(=O)c2ccccc2Cl)CC1`: inactive: > 76.9 µM.
Turning to `COC(=O)c1cc(Br)c(=O)n(-c2ccccn2)c1`, the Potency is inactive: > 76.9 µM.
On to `O=S(=O)(NC1=NCCCCCC1)c1cccs1`, for which the Potency is inactive: > 76.9 µM.
Turning to `COC(=O)C1=C(N)OC2=C(C(=O)CC(C)(C)C2)C1c1ccoc1` (stereo not drawn), the Potency is inactive: > 76.9 µM.
As to `COc1ccccc1N1CCN(C(=O)CSc2nc(-c3ccco3)cc(C(F)(F)F)n2)CC1`, the Potency was inactive: > 76.9 µM.
Regarding `COC(=O)C1CCN(C(=O)c2ccc(SC)cc2OC)CC1`, the Potency was inactive: > 76.9 µM.
With `COc1ccc(C(=O)N2CCCC2)cc1S(=O)(=O)N1CCOCC1`, the Potency was inactive: > 76.9 µM.
As to `Cc1oc(C)c(C(=O)O)c1COc1ccc(C(=O)O)cc1`, the Potency is inactive: > 76.9 µM.
The same measure for `C=CCN1C(=O)C2C(C(=O)NC)C3(C)C=CC2(O3)C1C(=O)NCc1ccc(OC)cc1` (stereo not drawn): inactive: > 76.9 µM; for `Cc1ccccc1-c1nnc2s/c(=C\c3ccc(N(C)C)cc3)c(=O)n12`: inactive: > 76.9 µM; for `CCOc1ccccc1C1C(C(=O)OC)=CN(C)C=C1C(=O)OC`: inactive: > 76.9 µM.
`C=CCSc1nnc(NC(=O)c2ccc(S(=O)(=O)NCC3CCCO3)cc2)s1` (stereo not drawn): the Potency is inactive: > 76.9 µM.
Turning to `O=C(CN1CCOCC1)N1CCCc2c1c(=O)oc1ccc(OCc3ccccc3)cc21`, the Potency was inactive: > 76.9 µM.
Regarding `CN(C)CCNC(=O)c1c(O)c2c([nH]c1=O)CCCC2`, the Potency is inactive: > 76.9 µM.
With `CC1(C)CC(N2CCN(c3ccccc3)CC2)=CC(=[N+]2CCCC2)C1`, the Potency is inactive: > 76.9 µM.
For the compound `CC(=O)Nc1ccc2oc(-c3cc(F)c(F)cc3Cl)nc2c1`, the Potency is inactive: > 76.9 µM.
Turning to `CCC(C)c1ccc(NC(=O)CC(C)=O)cc1` (stereo not drawn), the Potency entry is “inactive”.
For the compound `CCOc1ccccc1N(CC(=O)OC)S(C)(=O)=O`, the Potency was inactive: > 76.9 µM.
Regarding `Cc1nn(-c2ccc(Cl)cc2)c2sc(C(=O)N3CCN(c4ccccn4)CC3)cc12`, the Potency is inactive: > 76.9 µM.
For the compound `CCCOC(=O)Nc1sc2c(c1C(=O)OCC)CCC2`, the Potency was inactive: > 76.9 µM.
In the case of `CCOC(=O)c1ccc(NC(=O)CN2C(=O)CNC2=O)cc1`, the Potency is inactive: > 76.9 µM.
For `COC(=O)c1[nH]c2cccc(Cl)c2c1NC(=O)CN(C)C1CCCCC1`, the Potency was inactive: > 76.9 µM.
With `CCCCN1C(=O)c2ccc(C(=O)NC3=NCCS3)cc2C1=O`, the Potency was inactive: > 76.9 µM.
Consider `O=C(c1cnccn1)N1CCN(C/C=C/c2ccccc2)CC1`, for which the Potency is inactive: > 76.9 µM.
As for `CN=C1SC(CC(=O)Nc2cccc(Cl)c2Cl)C(=O)N1C` (stereo not drawn), the Potency is inactive: > 76.9 µM.
Consider `Cc1cc(C)n2ncc(C(=O)Nc3ccc4c(c3)OCO4)c2n1`, for which the Potency is inactive: > 76.9 µM.
As for `CCOCCCNC(=O)CS(=O)(=O)Cc1nc(-c2cccc(OC)c2)oc1C`, the Potency was inactive: > 76.9 µM.
Consider `CC(=O)OCC(OC(C)=O)C(OC(C)=O)C(OC(C)=O)C(=O)Nc1ccccc1C` (stereo not drawn), for which the Potency is inactive: > 76.9 µM.
Consider `O=C(O)C1CC(c2ccccc2F)=NO1` (stereo not drawn), for which the Potency was inactive: > 76.9 µM.
Consider `O=C(CSc1nnc(COc2cccc3cccnc23)o1)c1ccc(F)cc1`, for which the Potency is inactive: > 76.9 µM.
Consider `COc1cc2c(cc1OC)CN(C(=O)CCCN1C(=O)c3ccccc3C1=O)CC2`, for which the Potency was inactive: > 76.9 µM.
For `Cc1nn(CCCNC(=O)C2CCCO2)cc1Br` (stereo not drawn), the Potency was inactive: > 76.9 µM.
The same measure for `O=C(c1ccccc1C(=O)N1CCN(c2ccc(F)cc2)CC1)N1CCN(c2ccc(F)cc2)CC1`: inactive: > 76.9 µM; for `CSc1nnc(-c2cnccn2)n1Cc1ccccc1`: inactive: > 76.9 µM.
On to `CCC(=O)NC(C)C(c1cccs1)N1CCOCC1` (stereo not drawn), for which the Potency is inactive: > 76.9 µM.
As to `Cn1c(=O)c2c(nc(N3CCCC3)n2CC(O)CO)n(C)c1=O` (stereo not drawn), the Potency was inactive: > 76.9 µM.
Take `O=C(CSc1nnc(-c2ccco2)n1Cc1ccccc1)NC(=O)NCc1ccccc1`: the Potency is inactive: > 76.9 µM.
Regarding `O=C(O)c1ccc(CN2C(=O)c3ccccc3S2(=O)=O)cc1`, the Potency is inactive: > 76.9 µM.
In the case of `Cc1cc2cc3c(cc2nc1SCC(=O)O)OCCO3`, the Potency was inactive: > 76.9 µM.
Turning to `COc1ccc(-c2nnc(SCc3cc(C)cc(C)c3)o2)cc1`, the Potency is inactive: > 76.9 µM.
Take `CCOc1ccccc1-n1c(SCC(=O)N2CCOCC2)nnc1-c1ccccn1`: the Potency is inactive: > 76.9 µM.
Under `COc1cccc(NC(=O)Cc2cccs2)c1` stands inactive: > 76.9 µM; under `CCN1C(=O)c2cccc3c(S(=O)(=O)Nc4ccc(OC)cc4OC)ccc1c23`, inactive: > 76.9 µM.
Under `CN(Cc1nc2ccccc2c(=O)[nH]1)CC(O)COCc1ccco1` (stereo not drawn) stands inactive: > 76.9 µM; under `Cc1ccc(N(CC(=O)Nc2ccc(F)cc2)S(=O)(=O)N2CCCC2)cc1`, inactive: > 76.9 µM.
Take `O=C(COC(=O)c1cc(S(=O)(=O)N2CCOCC2)ccc1Cl)Nc1ccc2c(c1)OCO2`: the Potency is inactive: > 76.9 µM.
Regarding `O=C(CNS(=O)(=O)c1ccc(Br)s1)N1CCCC1`, the Potency was inactive: > 76.9 µM.
As to `CC1(C)C(=O)Nc2ccccc2N1C(=O)CN1C(=O)c2ccccc2C1=O`, the Potency is inactive: > 76.9 µM.
The same measure for `CCn1c(=O)cc(NC2=NCC(C)CN2c2cccc(Cl)c2)n(C)c1=O` (stereo not drawn): inactive: > 76.9 µM.
As for `Cc1cc(C)n(-c2ccc(OCC(=O)O)nn2)n1`, the Potency was inactive: > 76.9 µM.
Consider `Cc1ccc2nc(C3CCN(CC(=O)N4CCCCCC4)CC3)[nH]c2c1`, for which the Potency is inactive: > 76.9 µM.
As to `COc1cc2c(cc1OC)C(C(=O)Nc1ccc3c(c1)OCCO3)C1c3ccccc3CCN1C2=O` (stereo not drawn), the Potency was inactive: > 76.9 µM.
Regarding `CC(C)[C@H](NC(=O)C1(c2ccccc2)CCN(C(=O)OC(C)(C)C)CC1)C(=O)O`, the Potency is inactive: > 76.9 µM.
Take `O=C1CCCC/C1=C\Nc1ccccc1C(=O)O`: the Potency was inactive: > 76.9 µM.
Turning to `CC1CN(c2nc3ccccc3nc2C(C#N)C(=O)NC2CCCCC2)CC(C)O1` (stereo not drawn), the Potency was inactive: > 76.9 µM.
